The other results are listed elsewhere or left out.

Data on 12 compounds can be found in the antibiotic and cytotoxicity screens of Wong et al. (2023).

This assay concerns HepG2. The assay is described as follows: cytotoxicity call (relative viability < 0.9). Particulars: 10 µM.
As to `C[C@H]1CCCCO[C@@H](CN(C)Cc2ccccc2)[C@@H](C)CN([C@@H](C)CO)C(=O)c2cc(NC(=O)C3CCCCC3)ccc2O1`, the cytotoxicity call was “inactive”. For the compound `C[C@@H]1CN([C@H](C)CO)C(=O)c2cc(/C=C/c3ccccc3)cnc2O[C@@H]1CN(C)C(=O)c1cnccn1`, the cytotoxicity call is “inactive”. Turning to `COc1ccc(NC(=O)Nc2ccc3c(c2)C(=O)N([C@H](C)CO)C[C@@H](C)[C@H](CN(C)C(=O)Nc2ccc(F)cc2)OCCCC[C@@H](C)O3)cc1`, the cytotoxicity call was “inactive”. As to `Cc1cc(NC(=O)CCCC(=O)O)n(C)n1`, the cytotoxicity call is “inactive”.

For the compound `C[C@@H]1CN([C@H](C)CO)S(=O)(=O)c2ccc(Br)cc2O[C@@H]1CN(C)S(=O)(=O)c1ccc(F)cc1`, the cytotoxicity call is “inactive”. Turning to `COc1ccc(S(=O)(=O)N2C[C@@H](O)COC[C@@H]3O[C@@H](CC(=O)N[C@H]4CCN(Cc5ccccc5)C4)CC[C@H]32)cc1`, the cytotoxicity call was “inactive”. For `O=C(N1CCOCC1)[C@@]1(CCS(=O)(=O)c2ccccc2)COC(c2ccc(OCCCO)cc2)=N1`, the cytotoxicity call is “inactive”. For the compound `COc1ncnc(N)c1OC`, the cytotoxicity call is “inactive”. `C[C@@H]1CN([C@@H](C)CO)C(=O)c2cccc(NC(=O)Nc3ccc(F)cc3)c2O[C@H]1CN(C)Cc1ccc(Cl)c(Cl)c1`: the cytotoxicity call is “active”.

In the case of `Cc1ccc(S(=O)(=O)N(C)C[C@H]2Oc3c(NS(=O)(=O)c4ccc(F)cc4)cccc3C(=O)N([C@@H](C)CO)C[C@@H]2C)cc1`, the cytotoxicity call is “inactive”.

`COC(=O)c1c(CC[C@@H](CO)NC(=O)N[C@@H](C)Cn2cc(-c3ccccn3)nn2)oc(C(C)=O)c1C(=O)OC`: the cytotoxicity call is “inactive”.

Turning to `O=C(c1ccc(Cl)cc1)n1c2ccccc2c2ccccc21`, the cytotoxicity call is “active”.
